Source: patent US11771715B2 (Orna Therapeutics, Inc., priority 2019, dated 2023)

B1: Yanchengosbecks grenadier anchovy picornavirus (nucleic acid)
DNA: CCTTAGGGTCTGGAATGCGTCCTTTCTGGGCACTTCCACAATCCTAAGGTAATTTTCAACGCCAGCGATGGAGCGATATCCAAAGAACCTTTATGTTTTAGTTCGTCTTGTATGTTTATAAAATATAAAATTGGGATTAGCAACCCACAAAAACATTTTTGTTATTCTCACCACATGAGAGGGTGGTTAAACCTCTTCGTAACCTATCTTGCTTGATTGGCTACTTGGGCTAGATTTAGGACAACCTCTTTAGCAAGCCTAAATTACTCCTCGTACTTGCACCTGGTAACAGGCGTACCTGGAGGTTACGGTGGCGCTAACTTGGACTTCTCGTTAATTCGTGCAAGTTTAAATGATGCCTATTTTGAATACAAGAAAGTATGATAGTAACTTAGGGCGTGAAGTTCCGCTTAACATAAGGCAGTATAAGTACTAAGATAAGGTGTAAGACCTACCTTAATAACTGTTGTCTTTTCTCATGGTCTTTCCGTGGGAGCCCTTGCTAGGGGTAAAGTTAAGTATTCTCAAATAATTTTTCATTCAAACTCTTTCTCTCTGTTTT
B2: Falco virus A1 (nucleic acid)
chain: TAAAAGGGGACGCGGTGTGGCAGCTTTGGCTGTCATGCCGTGTTCTCCTTTTACCCCAAGGACTAGCCTTGGGGGTTTTCCAAATTCCTTTCCCTGTAGGCTTTACTTCTCTTTATCTATCTTTTCTGTAACTAAGTTTTGCCTATTCTAAAAATATTTTAGAATGTGTTTGGATGTAACTAAGTTTGTGCCTGCCCTAAAAATATTTTAGGGCTTGTTTGGATAACCTCGTCCCTTGTGTTCAGTGCCGCACAATTTGCTAGGCACTGTTCACTTCCTTTGTTTGTCCATTATGTATGCTAAGGTATGAATTCCATCATATGCTTAGCCTCTACATGCATAATCTTATTCCCTCCCTGGTGCAAACTACGCCCCCAACATATGTGAATCTTTTAAGCATATTCCTGACCCCACACATATATATGTGTTCTCGTGAATTCCCCCACCGTGAGGTGGTCACTTGGACGTGGTGTGTGTCACACAGCATATATATGATGCAGGATGTTGTTTTTAAGATAAGCATATGTCCTTAGTGCTTTGCATCATTTCCTCCACACCCCGTGAATGCGGCTAATCTTAACCCTGTTGGGTCCGTGGGTAAACCAACCCATTAACCACAGGACGGAACCGACTACTTTCGGGAGTGTGTGTTTCTTTTTCTTCTTTTGTCACT
modifications: lipid formulation
B3: Halastavi arva (1 × mut) (nucleic acid)
chain: CTTGATTCTAACCTTGCCGTATGGTGCCCTAACGGGTTCATTTAATCATGCGATGAGGGTTGCTATACCGCATCCATTCTAAGGCGATTCAATGCTTCATTTAGGAATTTTGTTGACGATTAAAAGGTACCCCCACAAAAACAAAACCAATCTTACTTGATTTTCGTTTTAACTGACCACTGCGATCCCAAATTTTCGCCTTCTTATCAAAGTATGTTGTGTTCTTTGGGTGTACAACCTGAGAACTTGTCTACAACTACATATTACTCGAGGAAGAAATTCGGTTTAAGCCGTGCCTTCTCACGTTTAGTATATCTATCTGGACACACCTTCTTCATCTTCTAATCCCCATCTAGTCTCCTGATCAGAGACGTCGTTATTAACAAATAACCCCCCTTGTTAATAAGAGACAAAGTACAATCAAGCTAAGTTCTCTTGGAGTTCCTGTAGGAACTTAGCCATTGTGATAGAGTCATAAGTCTATGTGCATAGACAGCTCTAGCTCACCATTTCCTTCCCAACCCATCTTTTCATCAGCTTAACTCTATGAATCCGATGCAAAAACCATTCTAACATCTTATGGTGCTTTCCAAGCCAAATGAGAGCTCACTCTTTTGAGCCGCTATTTAATGGACAATAAACGTTTTATAGTGTACATCATATTGTAAAAACAAA
modifications: lipid formulation

What follows are molecules tested on HEK293 cells. Conditions: luminescence from secreted Gluc in supernatant of HEK293 cells 24 hours after transfection of circular RNA; UTR truncated to 675 nt in front of Gluc coding region.
Type: cell-based, human
B1 was tested, and the Expression was 1.57E+06.
Work on B2 yielded an Expression of 1.48E+05.
B3 showed an Expression of 9.46E+04.
